According to the supplement of paper PMC3334620:
The full ranking holds about 33,000 sequences; the median of “E-score (-0.5 to 0.5)” is about -0.013, and the highest 2% start at about 0.3. This is one part of the list.

biological target: T1, Msn1 (UniProt P22148); test: PBM E-score (8-mer binding enrichment) (E-score (-0.5 to 0.5)); higher = stronger / more preferred TF binding; most listed sequences are background and not binding sites; conditions: protein concentration: 200 nM; construct: GST-full length
T1 sequence: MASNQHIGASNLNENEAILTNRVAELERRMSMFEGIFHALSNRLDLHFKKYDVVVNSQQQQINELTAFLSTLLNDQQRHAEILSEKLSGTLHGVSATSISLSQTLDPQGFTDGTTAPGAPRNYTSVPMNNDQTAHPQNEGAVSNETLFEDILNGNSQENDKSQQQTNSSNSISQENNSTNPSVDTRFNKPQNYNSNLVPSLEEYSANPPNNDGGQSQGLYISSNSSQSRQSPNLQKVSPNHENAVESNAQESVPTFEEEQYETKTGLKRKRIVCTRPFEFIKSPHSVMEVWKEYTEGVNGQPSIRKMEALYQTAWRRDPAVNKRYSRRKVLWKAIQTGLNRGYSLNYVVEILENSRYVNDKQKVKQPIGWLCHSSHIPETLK
In short: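 Using PURExpress in vitro transcription/translation, GST-tagged yeast transcription factors were made in full-length or DNA-binding-domain form. These were applied at about 100-200 nM to double-stranded universal all-10-mer Agilent arrays, and bound protein was detected with fluorescent anti-GST. Scans were normalised with masliner before the Universal PBM Analysis Suite assigned E-scores to ungapped eight-base words pooled with their reverse complements.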

Row | Sequence | PBM E-score
1 | AGCAATTC | 0.0543
2 | AGGGCGCG | -0.186
3 | GATGAAAA | 0.123
4 | CTTCAACA | 0.0766
5 | AGGAGCCC | -0.254
6 | AAGTCGAC | 0.196
7 | AACGGTCG | -0.0226
8 | CCTCGGCG | -0.0196
9 | TGGGCTAA | 0.0373
10 | AAAAAAAG | 0.167
11 | AAAACACA | 0.0509
12 | CACCGCGA | 0.0987
13 | ATGCAGCA | -0.0766
14 | CAACGGTG | -0.181
15 | AAAATTTC | -0.0273
16 | ACGTCAAT | -0.00977
17 | TGAATTAA | 0.134
18 | CCTTCACC | -0.233
19 | AGATTGGG | 0.102
20 | ACGGGGTG | -0.209
21 | CAACTATA | 0.0554
22 | ACCGTCCA | -0.0179
23 | AAAACGCT | 0.0419
24 | AGGAATTC | -0.0844
25 | ACGAGCCG | 0.0863

Row | Sequence | PBM E-score
26 | CGACGGCC | 0.0509
27 | ACAAGCTA | -0.102
28 | GATCGCCC | -0.24
29 | ACTAGGTC | 0.0539
30 | TCTTATCA | 0.243
31 | AATGTTTA | -0.0301
32 | CGATTTAC | -0.00545
33 | ATTACCCA | 0.098
34 | CGTACAAC | 0.093
35 | ATGCACGC | -0.143
36 | CAAGAAAC | 0.081
37 | ACATCAGT | 0.0444
38 | CGGTGTTA | -0.0399
39 | ATGCGGGC | -0.229
40 | CCCCCCGA | -0.272
41 | ATGGTCCG | 0.125
42 | GTCCTGCA | 0.239
43 | ACATTTCG | 0.241
44 | GACCTATC | 0.0973
45 | GCCCTAGA | -0.118
46 | CATGAGCG | -0.208
47 | AATAAACT | 0.025
48 | GAAAGTTA | 0.0769
49 | AAGCACGC | 0.0342
50 | ATGAGTAG | -0.0662

Row | Sequence | PBM E-score
51 | CGAGACAG | -0.00132
52 | ACGTTGTC | 0.119
53 | GGTTGGAA | -0.192
54 | ACCAGGCT | -0.184
55 | GCCCCGTA | -0.186
56 | GGCCACTA | -0.188
57 | CAACCCAA | -0.092
58 | TGCCCACA | -0.279
59 | AGTCGCAG | -0.0381
60 | TCCTACAA | 0.145
61 | ACAACCGC | 0.0262
62 | TTCAGCAA | 0.0262
63 | CCCCAATC | -0.222
64 | TATCGGCA | 0.112
65 | ACTCGGAA | 0.143
66 | CGGGAGTA | 0.0678
67 | GCAACAGC | -0.0393
68 | ATTTCGAC | -0.0556
69 | GGGCCCAC | -0.159
70 | ACCGCTCA | -0.0179
71 | AATTTGAT | -0.115
72 | CGTCGCTC | 0.112
73 | AAGAGCGA | -0.206
74 | GAAACTCA | 0.0588
75 | GCAATCCA | -0.0397

Row | Sequence | PBM E-score
76 | ACCAAATG | 0.143
77 | CGAAACAA | 0.151
78 | ACCCTAGT | -0.18
79 | GTCATGAC | 0.272
80 | CGACTGCG | -0.184
81 | GGGGTGCA | -0.0694
82 | ACCATATA | 0.209
83 | CGTGGCCC | -0.221
84 | AATCTCGA | 0.106
85 | CGGATAAG | -0.00604
86 | AAAGTGCA | 0.164
87 | AAAAAGGC | 0.00641
88 | ACCCATAC | -0.118
89 | ACTGCCCT | -0.175
90 | ACACTGCG | -0.0692
91 | CAAACGGA | -0.00924
92 | AAGGAGGG | -0.257
93 | CTACCTCC | -0.0369
94 | AATGGTAT | -0.0291
95 | AGACACGC | 0.265
96 | GTAACTCA | -0.219
97 | GAGACGCC | -0.174
98 | AGCCCAGG | -0.267
99 | GACTTGTA | 0.174
100 | TCCAGACA | 0.16

Row | Sequence | PBM E-score
101 | AACTGAGT | -0.00489
102 | CCTCCTCA | -0.316
103 | TAGCGAAA | 0.0628
104 | TAGCTACA | 0.0862
105 | ACAGCTGT | 0.0915
106 | TCGGCCGA | 0.31
107 | ATCAAAGC | -0.0592
108 | ATGTGATG | -0.137
109 | GGAGAAAC | 0.0302
110 | TCACCGGA | -0.0445
111 | CCCCACAC | -0.104
112 | CCCCTTTC | -0.253
113 | CGCGGCGC | 0.0917
114 | ACATAGAT | 0.281
115 | CAAGAGAC | 0.0882
116 | ATCGCTGA | -0.0106
117 | ACGAGGCC | -0.213
118 | ACTTCCAC | -0.172
119 | GCTTTCAC | 0.014
120 | ATGGTGTG | -0.045
121 | AACGGGGG | -0.318
122 | CCGAAGCG | 0.00546
123 | AAGGGAAA | -0.054
124 | CCTGTATC | 0.0611
125 | ATCCAACA | 0.0858

Row | Sequence | PBM E-score
126 | GCCGAGTA | 0.0548
127 | AGATCAAC | -0.0271
128 | AGGTACCA | -0.036
129 | ATGTTGCG | 0.0962
130 | CATACTAG | 0.126
131 | ATCTAAGC | -0.186
132 | GCCCTCCA | -0.222
133 | ATCTACCC | -0.131
134 | CCATTACG | -0.0849
135 | CACCCCCG | -0.237
136 | CCCACACG | -0.0713
137 | AGGTTTTG | -0.0837
138 | ACCGGTGA | 0.0967
139 | ACAACTCT | -0.0195
140 | ACAACTGA | 0.114
141 | ACTGTGCG | 0.0446
142 | ATTGTGTG | -0.0187
143 | ACCTCCGA | -0.084
144 | TACGTATA | 0.0531
145 | AAGGGACA | 0.44
146 | GGCTTACA | 0.0257
147 | GGATGGCA | -0.101
148 | AGAGTATC | 0.0564
149 | GGGGCGAA | -0.115
150 | TGTCCTAA | 0.487

Row | Sequence | PBM E-score
151 | GAAGCTAC | 0.126
152 | AAATACCA | -0.0306
153 | AACACAAC | 0.103
154 | AAAGCAAT | 0.208
155 | GCGTGGGA | -0.135
156 | CCAAACAC | -0.0988
157 | AACCGCTG | -0.175
158 | AATACCAG | -0.0289
159 | CACCCCCA | -0.236
160 | CGAAAGGA | 0.0453
161 | AAAGCACG | 0.0204
162 | GCATTCTA | -0.00237
163 | AAAGCGAG | 0.116
164 | AAGACCTG | 0.00451
165 | AGTTATCC | 0.107
166 | TGCGGGAA | -0.0298
167 | CTAGCTGA | -0.066
168 | AGTAAGAA | 0.119
169 | AAGAGAAA | -0.161
170 | GAAATTGA | 0.0876
171 | GCTCAACC | -0.156
172 | ACGTGTCC | 0.455
173 | ATGGCGAG | 0.0414
174 | CAGCCGTA | -0.0663
175 | ACGTACGA | -0.00868

Row | Sequence | PBM E-score
176 | AGTATGGA | 0.12
177 | AGCCCGTG | -0.243
178 | CACGATGA | 0.0913
179 | AATCAGGC | -0.03
180 | GTTAAAGA | 0.0691
181 | CAGTAGCA | -0.0223
182 | GATTGAGC | -0.0488
183 | ACCCTCCT | -0.281
184 | GGTGCAAA | -0.21
185 | ACCAGACG | -0.0174
186 | ATACCAGA | -0.00026
187 | GGGCCGGA | -0.192
188 | CTCACGGA | 0.0943
189 | ACACTGCC | 0.104
190 | ATTGGGAC | 0.29
191 | ACAGAGGG | -0.0916
192 | ATCAACCG | -0.0592
193 | CCCCAGGC | -0.3
194 | ATTGTATC | 0.0594
195 | ATAATTAT | 0.267
196 | ATAAATGC | 0.0672
197 | CTTGTGCC | -0.121
198 | ACCTTTCT | 0.0216
199 | CCTCTACC | -0.214
200 | GTGAATAA | 0.0378

Row | Sequence | PBM E-score
201 | AGGACCCT | -0.256
202 | AGACACAA | 0.332
203 | CGTAAAAA | 0.0697
204 | ATGCTTTG | 0.0676
205 | TATGCATA | 0.0323
206 | ACTTTCCA | 0.178
207 | CATTTAGA | 0.153
208 | CTCAGAGA | -0.139
209 | TGGTTAAA | 0.0361
210 | GGGATTAC | -0.315
211 | ATTCGGCC | 0.0205
212 | GTCATCCA | 0.0985
213 | AAGGAACA | -0.0137
214 | AATGGCCG | -0.00322
215 | ATATCGTG | 0.131
216 | GAAGTGCC | 0.0152
217 | CGCACATC | -0.115
218 | CTCTCGTC | -0.0428
219 | AAAGAACG | 0.0378
